Assay results published in the supplement of paper PMC3334620.
Whole data set: some 33,000 sequences, median “E-score (-0.5 to 0.5)” near -0.01, cut for the highest 2% near 0.26. The list shows a part of the results.

What follows are sequences tested against Ste12 (UniProt P13574) (assay: PBM E-score (8-mer binding enrichment) (E-score (-0.5 to 0.5)); higher = stronger / more preferred TF binding; most listed sequences are background and not binding sites). Details: protein concentration: 200 nM; construct: GST-DNA-binding domain.
How it was run: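 For each ungapped eight-base word taken together with its reverse complement, the Universal PBM Analysis Suite assigned an E-score. Binding data came from GST-tagged yeast transcription factors, applied at about 100-200 nM, on universal all-10-mer Agilent arrays made double-stranded by primer extension. Fluorescent anti-GST marked bound protein, and scans were normalised with masliner.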

Sequence	PBM E-score
ACCTAATA	0.0933
ACAACTAA	0.134
ACTGACAA	0.0676
GCAAGTCA	-0.13
GGACATGA	-0.0141
ATCCTAAA	0.0644
ACATTTTC	0.144
GACCTCCC	-0.0963
TAGGATAA	-0.0171
CGCTAACC	-0.0284
ATCGTCAC	0.0116
GTGCTTAA	0.0653
CCAGAAGG	0.00794
TCATCGGA	-0.0428
TCGGGGCA	-0.095
AGCTGAAA	0.264
ATGGCTCA	-0.147
AATGTCCT	-0.149
AGGTACTC	-0.0759
ACCTGCGG	-0.0627
CACGATCA	0.0026
CGCATGCC	0.161
AGGACTCA	-0.199
AACCTGAC	0.137
AGACCTCA	0.0121

Sequence	PBM E-score
TAAGCAGA	0.0155
CCAACGCA	0.0286
CCCAACGA	-0.00084
ACCTTAGT	-0.137
GACGACTC	-0.184
GAGGGATC	-0.126
GAAGTTTA	-0.079
AGTCGGCG	0.0939
ACTCGTGC	-0.211
CTCGCAGC	0.0324
ACCGATGG	0.0521
AGCTATAC	-0.0424
GAAGTTGC	-0.16
CGACATAA	-0.0078
CGTCCCAG	-0.07
ACGTGTTG	-0.0628
AGATGCTC	-0.136
CAGTGGCG	0.0149
GTAGGCCA	-0.16
CTCCACGC	-0.00372
CCCTAGTA	0.0343
ACCGACCT	0.0276
GACTGAGA	0.0132
CTACTCCA	-0.0132
ACTCGCCT	-0.0323

Sequence	PBM E-score
CATGGTGA	-0.0853
GCGTCCCC	-0.16
AGGGTGGC	-0.0324
CGCTCGAG	0.161
ACTAACGG	-0.126
ATGGCGTA	-0.0602
GCTACTTA	-0.135
GAAGACTA	-0.0635
GATGGCCC	-0.197
GATAACAA	0.15
CATGTGAA	0.12
CATGGCTC	-0.21
GGTCAAAA	0.0927
CCCAGGGC	-0.256
ACCGGACC	0.00077
CCAATGTC	0.0116
AACAGGAT	0.0667
GGGCCAAC	-0.215
CTTTGGCA	-0.0669
AAAAGGAA	0.188
AGCTGGAC	-0.22
AAAACTAC	0.0758
GACTCTGC	-0.0845
GGAATGTA	0.0732
CTACCTAA	0.12

Sequence	PBM E-score
ACCTTACC	0.116
TAGCAACA	0.0836
CCGCTAGC	-0.186
GGACGCGA	-0.107
AGCTGTAT	-0.092
AACAGCGA	0.00299
ATGAACAA	0.0445
GAGGCTAC	-0.195
AATAGGCA	0.0915
CGAGTTTC	0.251
AGTGGTTG	0.0844
ACGGCGTG	-0.0929
GAAGGACC	-0.227
GAATAGCC	-0.189
ATTTGCCG	0.0984
CTCTCCTA	-0.0454
AACATACG	0.143
AGTGCTTG	-0.0429
CGAATGTC	0.0146
AAGCACCA	-0.0324
AATGCCCG	-0.0805
ACCAATAG	-0.217
CCTCTGCC	-0.13
CACTCCGA	-0.155
ACTCTACA	-0.144

Sequence	PBM E-score
AGCACGCT	-0.222
TCCATGCA	0.107
TCTTAAAA	0.156
CTTAGTAA	0.0288
GTTATGGA	0.00832
AAAGGTCG	-0.0413
TCATTAAA	0.324
CTTACGTC	-0.167
ACTGTAGG	0.0333
ACGAAGGA	-0.0803
GCCAGCCC	-0.0859
CCGTAAAC	0.0542
CCATGGAC	-0.138
ACAGAAGT	-0.00525
ATCGATCA	0.108
TCACCTGA	-0.0766
GATCATCA	-0.115
AGGCGACC	-0.232
ACCGAAGC	-0.101
ATCGCGCG	0.0537
ACGAAGGC	-0.205
ACGCCTCT	-0.111
CGCCGATA	0.00496
CGAGCCTC	-0.108
CCGCAGGA	-0.0635

Sequence	PBM E-score
ACTGGAAA	0.143
CACTGGAA	-0.101
GACAAGCA	-0.203
ATTCTTTC	0.155
GAGCGAGA	0.187
AAGCTCGT	-0.195
ACATTAGG	-0.034
GGCCTGAC	-0.0732
CTTGACAA	0.0222
GAGGCGAA	0.0755
CGAGGGTC	-0.0723
AATTTGCG	0.144
GCTGTACA	-0.112
GAACATTC	-0.00441
ATGTGGGA	-0.0289
TACATTAA	0.209
AGATTTAG	0.162
CTCTTGTC	-0.117
GCGGGCCA	0.00189
ATGGCCAA	-0.194
GTGTAATA	0.0454
CCACCGAA	-0.0889
ATTCATGA	0.138
ATCAAAGG	0.164
ATGAGACC	-0.144

Sequence	PBM E-score
CAAGGGCA	-0.073
ACGCCATC	0.122
AATTATCC	0.162
ACATGGTA	-0.148
AACAGAAA	0.311
ACGATGGC	-0.0621
CGTCTTGA	0.113
GCAGGAAC	-0.192
CTATGACA	0.0957
ATACATGC	0.00188
CGCGTTCA	0.129
CATGCCGG	0.191
GTACAACA	0.00343
GTACACAA	-0.00405
CTCGTTGC	0.121
CCATTATA	0.217
ATGGTTTA	0.101
TGTGTTAA	0.0922
AGCGAGGG	-0.0603
AGTGCGAC	-0.0819
CGAAAGAA	0.112
ACCCGAGG	-0.0292
TACTGGGA	0.0965
ATGACGAG	-0.185
ATAAATGG	0.139

Sequence	PBM E-score
CGGGATTA	0.196
ACGGACTC	-0.131
GCAACCCC	-0.0411
ACTGAGAA	0.00854
GCTCTTTA	-0.0234
ACATTTAT	0.111
AAACGGTA	0.151
CTCTCTGC	-0.0275
ACCCACGT	-0.0511
ATCGTCAA	0.016
CACCTTAG	-0.18
ATCGTTGA	0.055
AGCATTAG	-0.126
CAAACCCA	0.262
GAGCGACC	-0.171
CTAAGAAG	0.0268
CACTCCCG	-0.0749
CGGACAAG	-0.0812
GAAATGTC	-0.122
AAGATTGA	0.0987
AGTAAATC	0.16
GGATAAGA	0.0906
AACACGCC	-0.0359
GAATAGTA	-0.0864
CGTATCCA	-0.225

Sequence	PBM E-score
AGTCATAG	0.0104
TAAGAGAA	-0.097
TGAACACA	0.0641
GATGGCTA	-0.15
GATGAACC	0.062
ATAGTCCG	-0.0803
GATGGGCC	-0.117
CGAACAAC	0.125
ATAATACA	0.318
CGTCAGCC	0.0524
AAAGACAC	0.115
ATACTACC	-0.089
CAGCCAAG	-0.152
AACTGGGG	0.0456
ATGTAACG	0.241
AGGCTAGC	-0.231
AGTTCTAG	-0.0429
CCCTTTCG	-0.104
AACTTCAC	0.0728
AGAACTTA	-0.0376
GTTAGAGA	-0.066
AATTCCCA	0.0396
CTCTACTC	-0.129
AAACTAGA	0.195
ACCTAGGG	-0.145

Sequence	PBM E-score
AGACCATG	0.0174
CTTTCGAA	0.0433
ATAGGTAC	-0.12
ACCCTTAG	-0.19
TATTCAGA	0.029
ATCGTTCC	-0.229
AGCGTCTG	-0.149
AGATGGTA	-0.0201
CAAGGGAC	-0.244
CACGGGTA	-0.101
AAACGTAA	0.202
ATATCACA	0.0445
GCGGGACA	0.0851
AGTTACAT	0.0745
CGTGGCGC	-0.1
CTGCTAAA	0.0382
TCACTACA	0.127
CCCCCTAA	-0.251
AAAGTCAC	0.071
CCACATAG	-0.109
AAAGGATG	0.032
AAAAAGCA	0.108
GAGTTCAC	-0.13
TACCAATA	-0.107
CGCTCGAC	-0.0877

Sequence	PBM E-score
TCGGATCA	0.191
CTCCTGAC	-0.0416
CAGGTATG	0.0422
AGTATTGG	-0.0255
ACCGTGCT	-0.08
GGACCGCC	-0.112
AAACGAAT	0.106
AGAACGAC	0.0693
CAGTAAGG	-0.0592
CTTAGCGC	0.187
CGTATCAG	0.105
AGAATCGA	0.0476
ACGCCTAG	-0.0242
AAACGGTT	0.138
CGGGTCAC	0.00395
GTCGGTCA	-0.229
CACGAGAC	-0.00237
CCGAACTA	0.0133
ATTCAGAG	0.0638
AACTTGGT	-0.0649
AGACTGAA	0.0655
CCCGTTCG	-0.0295
ACCTCCAT	-0.0171
AAAGTCCG	-0.145
TAGATTCA	-0.0579

Sequence	PBM E-score
ATCCAGCC	-0.0107
CTTATGTA	0.0688
TAACGTAA	0.191
ACACGCGA	-0.0426
CCCGGACA	0.073
CGGACAGA	-0.116
GTGCCGTA	-0.15
GGTACGCA	-0.124
GTGCGTCA	-0.139
CAACTAGC	0.0562
CTTTTAAC	0.0424
CTCTCAGA	-0.0714
ACTCGTGG	-0.103
CAGATAAC	-0.0355
AATATGAC	0.0945
CCTATTAA	0.00994
ACCGTTAG	-0.196
AGCCAATG	-0.147
GTGTCGTA	0.0677
ACCGGTAA	0.0469
AATTATTG	0.16
GAGGAGGA	-0.0989
CCCTGCCG	-0.05
AAACAACC	0.277
GTTAGAAA	0.0643

Sequence	PBM E-score
AAAGAGTT	0.0105
CCGCCAAC	-0.00677
GTGAGAAA	0.189
CCACGGGG	-0.195
ATTTCTGC	0.0881
CTTAAGCA	0.0722
AGAGAGGA	-0.0863
GCCGTACA	-0.0834
CCCGCATA	0.198
ACTTAGCG	0.0815
AGGCAAAC	0.00641
ATCACCAC	0.0123
ATAAGGGC	-0.141
CACCGCTC	0.089
GTCGAACA	0.103
ACTTTGAA	0.2
CAGTAGTC	-0.0734
ATGATATG	0.0998
CAGAGAGG	-0.0742
GGAGTGAC	0.0133
CCTTCTCG	-0.152
GTGCACGA	0.0747
GCGGAAAA	0.253
GCAAGGAC	-0.256
GCACCTGA	0.0667

Sequence	PBM E-score
AAGACAAC	0.0377
ACACAGTA	0.143
ATTTGACC	0.0785
AAGTCTAG	-0.109
ACCATGAC	-0.0636
AACGATGG	0.0516
ACAGAACT	0.203
ACCCTGAT	-0.0303
AGATGAGA	0.0215
AATCTAAA	0.191
CTGATATC	0.11
CTGCACAA	-0.0847
CAACCGAC	0.0141
AGCACACA	-0.114
AGGATCTC	-0.161
AAACACTC	0.288
AGGAGTCC	-0.174
ATGGGTGC	0.0284
CTTCGTGA	0.00137
